# According to PubChem BioAssay (Tox21):
# The shares of active, inactive and inconclusive entries below differ from those in the screen. Potencies of inconclusive entries are left out as doubtful fits. The source made the active and inactive calls. Unless noted, calls come from the whole dose curve; as a rule, active = well fitted curve in the direction sought with a large enough effect in the repeat runs; inconclusive = weak or mixed curves; inactive = no such curve, though single readings can be large; an effect the other way counts as inactive or inconclusive.
# Columns and labels:
# [1] = qHTS assay to identify small molecule antagonists of the estrogen related receptor (ERR) signaling pathway (AID 1224819; note: nearly all actives have a fitted effect of over 50% in size)
# Summary of the method: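 Seed ERR cells 2,000/well; rest 6 h at 37 C/5% CO2; pin compounds in DMSO; incubate 18 h at 37 C; add One-Glo; wait 30 min at room temperature; measure luminescence.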
# [2] = qHTS assay to identify small molecule antagonists of the estrogen related receptor (ERR) signaling pathway - cell viability counter screen (AID 1224818)
# Summary of the method: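 Viability of ERR cells, CellTiter-Fluor fluorescence; 17.5 h compound exposure at 37 C, DMSO vehicle; 30 min reagent incubation at 37 C/5% CO2.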
# [3] = qHTS assay to identify small molecule antagonists of the estrogen related receptor signaling pathway with the pleiotropic PPARgamma coactivator (PGC) cell viability counter screen (AID 1224822)
# Summary of the method: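 17.5 h compound treatment of PGC/ERR cells at 37 C; readout CellTiter-Fluor fluorescence; run alongside the PGC/ERR antagonist screen to flag cytotoxic compounds.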
# [4] = qHTS assay to identify small molecule agonists of the estrogen related receptor signaling pathway with the pleiotropic PPARgamma coactivator (PGC) (AID 1224823)
# Summary of the method: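 Compounds dissolved in DMSO are added by pin tool to PGC/ERR cells that have settled for 6 h, and incubation continues 18 h at 37 C. Reporter output is measured as One-Glo luminescence.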
# [5] = system: estrogen-related receptor alpha (ERRalpha) with PGC-1alpha coactivator, human; experiment: qHTS assay to identify small molecule antagonists of the estrogen related receptor signaling pathway with the pleiotropic PPARgamma coactivator (PGC) (AID 1224821; calls by dose curve; note: nearly all actives have a fitted effect of over 50% in size)
# Summary of the method: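 A PGC/ERR cell line supplied by NTP is seeded, allowed 6 h at 37 C, and treated with test compounds in DMSO for 18 h. Signal is then measured as luciferase luminescence using One-Glo.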
# Potency is the fitted concentration of half-maximal effect; tags give direction and shape of the fitted curve.
compound,measurement,setting,value
COc1ccccc1N1CCN(CCN2C(=O)CC3(CCCC3)CC2=O)CC1,Potency,[1],inconclusive [inhibitor]
CC12C(=O)OC(=O)C1(C)C1CCC2O1 (stereo not drawn),Potency,[2],inconclusive [cytotoxic]
same,Potency,[3],inconclusive [cytotoxic]
O=c1[nH]c(=S)[nH]c(-c2ccccc2)c1Cc1c(O)ccc2ccccc12,Potency,[1],inconclusive [inhibitor]
Cn1c(=O)c(-c2c(Cl)cccc2Cl)cc2cnc(Nc3ccc(N4CCOCC4)cc3)nc21,Potency,[2],inconclusive [cytotoxic]
same,Potency,[3],inconclusive [cytotoxic]
same,Potency,[4],active: 0.0531 µM
Nc1nc(N)c(N=O)c(OCC2CCCCC2)n1,Potency,[2],inconclusive [cytotoxic]
same,Potency,[1],inconclusive [inhibitor]
same,Potency,[3],inconclusive [cytotoxic]
Cn1c(=O)c2[nH]c(-c3ccc(S(=O)(=O)O)cc3)nc2n(C)c1=O,Potency,[2],inactive
same,Potency,[5],"inconclusive [inhibitor, full curve, poor fit]"
O=C1NC(=O)c2c1c(-c1ccccc1)cc1[nH]c3ccc(O)cc3c21,Potency,[2],inconclusive [cytotoxic]
same,Potency,[1],inconclusive [inhibitor]
same,Potency,[3],inconclusive [cytotoxic]
O=C1c2ccccc2C(=O)c2c(NCCc3ccc(O)cc3)ccc(NCCc3ccc(O)cc3)c21,Potency,[2],inconclusive [cytotoxic]
same,Potency,[1],active: 18.1 µM
same,Potency,[3],active: 11.9 µM
CC(C)(C)c1cc(/C=C(\C#N)C(N)=S)cc(C(C)(C)C)c1O,Potency,[2],inactive
same,Potency,[5],active: 2.11 µM
same,Potency,[3],inconclusive [cytotoxic]
Nc1ncnc2c1nc(Sc1ccc(Cl)cc1)n2[C@H]1OC2COP(=O)(O)O[C@@H]2C1O (stereo partly drawn),Potency,[2],inactive
same,Potency,[4],inconclusive [activator]
